Reference: patent publication US9763922B2 (priority 2014, dated 2017)

The compounds below were run on MYC (assay: cells). Conditions: Homo sapiens, MV4-11, 4 h, read-out: Myc IC50 (μM).
Work on `CCC(=O)N1CCc2c(c(N3CCCc4cc(-c5cnn(C)c5)c(C(F)F)cc43)nn2C2CCOCC2)C1` [Example 242, 1-[3-[7-(difluoromethyl)-6-(1-methylpyrazol-4-yl)-3,4-dihydro-2H-quinolin-1-yl]-1-tetrahydropyran-4-yl-6,7-dihydro-4H-pyrazolo[4,3-c]pyridin-5-yl]propan-1-one] yielded an IC50 of 0.112 µM. With `CNC(=O)N1CCc2c(c(N3CCCc4cc(-c5ccccn5)c(C#N)cc43)nn2C2CCOCC2)C1` [Example 300, 1-[3-[2-fluoro-4-(1-methylpyrazol-4-yl)anilino]-1-[(3S)-tetrahydrofuran-3-yl]-6,7-dihydro-4H-pyrazolo[4,3-c]pyridin-5-yl]ethanone] the IC50 was 0.053 µM. Compound `CC(=O)N1CCc2c(c(N3CCCc4cc(-c5cnn(C)c5)ncc43)nn2C2CCOCC2)C1` [Example 230, 1-(3-(6-(1-methyl-1H-pyrazol-4-yl)-3,4-dihydro-1,7-naphthyridin-1 (2H)-yl)-1-(tetrahydro-2H-pyran-4-yl)-6,7-dihydro-1H-pyrazolo[4,3-c]pyridin-5(4H)-yl)ethanone] has an IC50 of 0.236 µM. With `CC(=O)N1CCc2c(c(Nc3ccc(-c4cnn(C)c4)c(F)c3F)nn2C2CCOC2)C1` (centres unmarked) [Example 278, 1-[3-[2,3-difluoro-4-(1-methylpyrazol-4-yl)anilino]-1-tetrahydrofuran-3-yl-6,7-dihydro-4H-pyrazolo[4,3-c]pyridin-5-yl]ethanone] the IC50 was 0.37 µM. `CC(=O)N1CCc2c(c(N3C[C@@H](C)Cc4cc(-c5cnn(C)c5)c(C(F)F)cc43)nn2C2CCOCC2)C1` [Example 240, (S)-1-[3-[7-(difluoromethyl)-3-methyl-6-(1-methylpyrazol-4-yl)-3,4-dihydro-2H-quinolin-1-yl]-1-tetrahydropyran-4-yl-6,7-dihydro-4H-pyrazolo[4,3-c]pyridin-5-yl]ethanone] gave an IC50 of 0.035 µM. Compound `CNC(=O)N1CCc2c(c(N3CCCc4cc(-c5cnn(C)c5)c(C(F)F)cc43)nn2C2CCN(C3COC3)CC2)C1` [Example 336, 3-[7-(difluoromethyl)-6-(1-methylpyrazol-4-yl)-3,4-dihydro-2H-quinolin-1-yl]-N-methyl-1-[1-(oxetan-3-yl)-4-piperidyl]-6,7-dihydro-4H-pyrazolo[4,3-c]pyridine-5-carboxamide] has an IC50 of 0.005 µM. For `CNC(=O)c1ccc(-c2cc3c(cn2)N(c2nn(C4CCOCC4)c4c2CN(C(C)=O)CC4)CCC3)cn1` [Example 280, (S)-1-[3-[2,6-difluoro-3-(1-methylpyrazol-4-yl)anilino]-1-tetrahydrofuran-3-yl-6,7-dihydro-4H-pyrazolo[4,3-c]pyridin-5-yl]ethanone], the IC50 was 0.057 µM. `CC(=O)N1CCc2c(c(N3CC(CC(F)F)Cc4cc(-c5cnn(C)c5)ccc43)nn2[C@H]2CCOC2)C1` (stereo partly drawn) [Example 81, 1-(3-(3-(2,2-difluoroethyl)-6-(1-methyl-1H-pyrazol-4-yl)-3,4-dihydroquinolin-1(2H)-yl)-1-((S)-tetrahydrofuran-3-yl)-6,7-dihydro-1H-pyrazolo[4,3-c]pyridin-5(4H)-yl)ethanone] was tested, and the IC50 was 0.28 µM. With `CNC(=O)N1CCc2c(c(N3CCCc4cc(-c5cnn(C)c5)c(C(F)F)cc43)nn2-c2ccccc2)C1` [Example 340, 3-[7-(difluoromethyl)-6-(1-methylpyrazol-4-yl)-3,4-dihydro-2H-quinolin-1-yl]-N-methyl-1-phenyl-6,7-dihydro-4H-pyrazolo[4,3-c]pyridine-5-carboxamide] the IC50 was 0.021 µM. `CC(=O)N1CCc2c(c(N3CCc4cc(-c5cnn(C)c5)ccc43)nn2C2CCOCC2)C1` [Example 174, 1-[3-[5-(1-methylpyrazol-4-yl)indolin-1-yl]-1-tetrahydropyran-4-yl-6,7-dihydro-4H-pyrazolo[4,3-c]pyridin-5-yl]ethanone] gave an IC50 of 0.478 µM. `CNC(=O)N1CCc2c(c(N3CCc4cc(-c5cnn(C)c5C)c(C(F)F)cc43)nn2C2CCOCC2)C1` [Example 253, 3-[6-(difluoromethyl)-5-(1,5-dimethylpyrazol-4-yl)indolin-1-yl]-N-methyl-1-tetrahydropyran-4-yl-6,7-dihydro-4H-pyrazolo[4,3-c]pyridine-5-carboxamide] was tested, and the IC50 was 0.028 µM.
